Measured values as given in publication PMC4336329 (PLoS ONE, 2015).
About 2,200 (0.71%) of roughly 310,000 compounds showed an effect of 50% or more. The effect is printed as a negative number. Some of the results follow.

The molecules below were run against human ether-à-go-go-related gene (hERG) potassium channel (human, UniProt Q12809) (assay: primary screen, population patch clamp on CHO cells stably expressing hERG).
Sequence of human ether-à-go-go-related gene (hERG) potassium channel (Q12809 whole entry, looked up): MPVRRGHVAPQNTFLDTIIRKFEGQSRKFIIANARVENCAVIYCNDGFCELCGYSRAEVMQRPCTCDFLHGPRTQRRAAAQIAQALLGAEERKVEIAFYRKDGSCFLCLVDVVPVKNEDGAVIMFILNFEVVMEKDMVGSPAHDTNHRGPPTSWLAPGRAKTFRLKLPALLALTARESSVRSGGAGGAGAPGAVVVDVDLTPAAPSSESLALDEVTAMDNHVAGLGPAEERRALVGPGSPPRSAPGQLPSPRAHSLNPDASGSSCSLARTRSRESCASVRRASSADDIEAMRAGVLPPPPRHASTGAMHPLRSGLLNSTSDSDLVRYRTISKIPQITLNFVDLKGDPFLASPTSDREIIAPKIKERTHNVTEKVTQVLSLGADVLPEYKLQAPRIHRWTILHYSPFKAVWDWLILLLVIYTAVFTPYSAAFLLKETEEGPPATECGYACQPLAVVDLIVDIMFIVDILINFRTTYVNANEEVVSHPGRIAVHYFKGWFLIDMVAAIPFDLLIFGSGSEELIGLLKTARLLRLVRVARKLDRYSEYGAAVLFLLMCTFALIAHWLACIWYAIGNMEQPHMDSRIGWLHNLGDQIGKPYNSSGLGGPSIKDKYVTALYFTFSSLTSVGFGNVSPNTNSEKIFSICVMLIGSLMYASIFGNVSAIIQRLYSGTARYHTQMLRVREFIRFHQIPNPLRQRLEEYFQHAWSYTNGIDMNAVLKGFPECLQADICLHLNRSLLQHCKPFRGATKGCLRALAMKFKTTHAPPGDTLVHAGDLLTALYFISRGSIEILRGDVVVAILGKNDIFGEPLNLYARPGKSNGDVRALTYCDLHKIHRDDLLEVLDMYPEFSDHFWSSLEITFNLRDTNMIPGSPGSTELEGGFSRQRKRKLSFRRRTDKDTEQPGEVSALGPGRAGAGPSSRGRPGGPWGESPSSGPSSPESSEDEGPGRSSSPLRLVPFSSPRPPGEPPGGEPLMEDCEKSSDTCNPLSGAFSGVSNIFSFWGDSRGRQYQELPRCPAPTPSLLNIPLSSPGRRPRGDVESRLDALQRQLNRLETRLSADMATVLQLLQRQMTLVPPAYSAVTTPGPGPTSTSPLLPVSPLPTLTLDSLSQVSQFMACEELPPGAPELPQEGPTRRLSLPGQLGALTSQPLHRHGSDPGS

SMILES | hERG current change (%, negative = inhibition) at 1uM [%]
Fc1ccccc1-c1nc2c(s1)CCc1onc(-c3ccc(Br)cc3)c1-2 | 10.1
Cc1cc(=O)n2c(n1)NC(Nc1cccc(C)c1C)=NC2c1ccc(F)cc1 (centres unmarked) | 13.3
Cc1c(C)n(Cc2ccccc2)c2ccc(C(=O)O)cc12 | 11.3
O=C(COc1ncnc2ccccc12)NCCc1ccccc1 | 6.8
COc1ccc(Cc2nnc(SCC(=O)Nc3ccc(C)cc3)n(N)c2=O)cc1 | 9.78
O=C(Nc1cccc(Cl)c1)c1cccc(Oc2ccc([N+](=O)[O-])cc2Cl)c1 | 8.17
Cl.c1ccc2c(c1)oc1c(N3CCOCC3)ncnc12 | 6.59
NC(=O)NCc1ccccc1F | 11.3
CCc1cc(-c2n[nH]c(C)c2-c2nc3ccccc3n2C)c(O)c(CN2CCN(C)CC2)c1O | -10.1
CC(C)C[C@H]1CNC(=O)C(=O)N1C[C@H](C)NC(=O)Cc1ccccc1 | 7.44
CC1C(=O)N(c2ccc(S(=O)(=O)N(C)C)cc2)C1(/C=C/c1ccccc1)C(=O)NC1CCCC1 (centres unmarked) | 20.3
CCN(CC)CCCNC(=O)Cn1nc(-c2ccccc2)ccc1=O | -22
CCOc1cc(CNc2cccc3[nH]c(C)nc23)ccc1OC.Cl | 17.5
O=C(C1CCCN1S(=O)(=O)c1cccc2cccnc12)N1CCN(c2ccccc2)CC1 (centres unmarked) | -10.5
COC(=O)c1cc2ccccc2oc1=O | 9.87
COc1ccc(/C=N/NC(=O)CCn2c3ccccc3c3ccccc32)cc1OC | 1.17
Cc1nnc(SCCCOc2ccccc2)nc1C | 6.8
COc1ccc(S(=O)(=O)N2CCCCCC2)cc1C(=O)N(C)Cc1ccc(C(C)(C)C)cc1 | 11.8
Cc1cc(O)c(C(C)C)cc1NC(=O)c1ccccc1Cl | -0.168
Fc1ccccc1NC(=S)N1CCN(Cc2ccccc2)CC1 | 7.44
C=CC(O)(C#CCN(CC)CC)c1ccccc1 (centres unmarked) | 5.23
CCC(C)(C)C1CCC(=NNC(=O)c2ccoc2C)CC1 (centres unmarked) | 9.14
COC(=O)N1C(=O)[C@](c2ccc(Cl)cc2)(C(C)C)N1C(=O)OC | 10.8

SMILES | hERG current change (%, negative = inhibition) at 1uM [%]
CC(NCc1cccn1C)c1ccccc1.Cl (centres unmarked) | -5.71
Cc1ccc(NC(=S)N2CCN(S(C)(=O)=O)CC2)cc1C | 8.13
CC1CCc2sc(C(=O)NCc3ccc(F)cc3)cc2C1 (centres unmarked) | -5.45
O=C(Nc1ccc2c(c1)OCCO2)C(=O)NC1CC1 | 13.9
C/C(=N/NC(=O)c1cc(C(C)C)[nH]n1)c1cccs1 | 11.3
CCOC(=O)[C@@H]1[C@H]2COc3ccccc3[C@@H]2N2C(=O)N(c3ccc(C(F)(F)F)cc3)C(=O)[C@]12C | -0.838
CSCCCNC(=S)N(C)CC(=O)Nc1ccc(C)cc1 | 16
CCCCn1c(N)c(N(CCC(C)C)C(=O)CC2CCCCC2)c(=O)[nH]c1=O | 10
COc1cc(-c2ccccc2)nc2ccccc12 | 3.75
N#CC1=C2SCN(c3ccccc3)CN2C(=O)CC1c1ccccc1Cl (centres unmarked) | 10.6
COc1cc([N+](=O)[O-])ccc1NC(=O)CN1CCN(C(=O)c2ccco2)CC1 | -47.5
Cc1ccnc(NC(=O)CNC(=O)c2ccc3ccccc3c2)c1 | 9.32
Cc1ccccc1NC(=O)Cc1nc(COC(=O)c2cc(Br)ccc2O)cs1 | 9.06
O=C1CN(c2nc(-c3cccnc3)nc3scc(-c4ccccc4)c23)CCN1 | 1.65
CC(C)OC(=O)c1cc(NC(=S)Nc2ccc([N+](=O)[O-])cc2)cc(C(=O)OC(C)C)c1 | 13.3
COc1ccc(NC(=O)c2cc(S(=O)(=O)N3CCOCC3)ccc2N2CCOCC2)cc1 | 3.97
C=CCn1c(C)cc(C(=O)COC(=O)C2CC(=O)N(CCc3ccc(OC)c(OC)c3)C2)c1C (centres unmarked) | 7.4
CC1CC(C)CN(C(=O)CSc2nnc(-c3ccco3)o2)C1 (centres unmarked) | 4.69
O=C(NCc1ccc2c(c1)OCO2)c1cc(-c2cc(Cl)ccc2O)n[nH]1 | 13.5
Cc1ccc(C(=O)NCc2ccco2)c(C)c1 | 17.4
O=C(COc1ccccc1)NCc1n[nH]c(=S)n1-c1ccccc1 | 18.5
O=C1CSC(c2ccc([N+](=O)[O-])cc2)N1c1ccccc1 (centres unmarked) | -3.85
Fc1ccccc1OCCCCn1cncn1 | 0.0611

SMILES | hERG current change (%, negative = inhibition) at 1uM [%]
COCCN(C(=O)CNC(=O)c1ccco1)C(C(=O)NC1CCCC1)c1cccc(OC)c1 (centres unmarked) | 11.3
CCOC(=O)c1cn2nc(Oc3ccccc3)ccc2n1 | 8.49
O=C(NNC(=O)C12CC3CC(CC(O)(C3)C1)C2)c1ccccc1O | 11
CN(C(=O)COc1ccccc1)c1nnc(-c2cccnc2)s1 | 5.54
Cc1nnc(NC(=O)CSc2nnc(CNC(=O)c3ccccc3)o2)s1 | 11.5
Cc1ccc(SCC(=O)c2cc(C)c(O)c(C)c2)cc1 | 10.6
Cc1ccc(OCCCC(=O)Nc2cc(Cl)ccc2-n2cncn2)cc1 | -0.277
COc1ccccc1NC(=O)C(C)Sc1nnnn1C (centres unmarked) | 5.28
COCCn1c(-c2cc(OC)c(OC)c(OC)c2)nc2oc3ccccc3c(=O)c2c1=O | 12.6
CC(=O)Nc1ccc(C(=O)N(C)C(C(=O)Nc2ccccc2)c2ccccn2)cc1 (centres unmarked) | 2.69
CCCCNC(=O)CSc1nnc(-c2ccco2)n1C | 4.89
COc1ccc(Cl)cc1C(=O)NNC(=O)c1cccnc1 | 7.2
N/C(Cc1ccc([N+](=O)[O-])cc1)=N\OC(=O)c1ccc([N+](=O)[O-])cc1 | -56.7
CC(C)C(NC(=O)CN1C(=O)c2ccccc2C1=O)c1ccccc1 (centres unmarked) | 10.1
CCOC(=O)C1CCN(c2cc3c(cc2NC(=O)c2ccccc2F)n(C)c(=O)n3C)CC1 | 11.4
CC(C)Oc1ccc(C(=O)Nc2c3c(nn2C(C)(C)C)CS(=O)(=O)C3)cc1 | 7.78
CCN(CC)S(=O)(=O)c1cccc(NC(=O)COC(=O)C2=COCCO2)c1 | 5.47
COc1ccc(Cn2c(CCC(=O)Nc3ccc(C)cc3)nc3cccnc32)cc1 | 15.3
CCN(CC(=O)Nc1cc(S(=O)(=O)N2CCCCC2)ccc1Cl)Cc1ccccc1 | 11.6
COc1ccc(/C=C/C(=O)NCC2COc3ccccc3O2)cc1OC (centres unmarked) | 6.43
O=C(CSc1nnc(NC(=O)C2CC2)s1)NCc1ccco1 | -1.67
N#CCCn1cc(C(N)=O)c(-c2ccc3ccccc3c2)n1 | 12.9
COc1cccc(CC(=O)Nc2ccccc2C(=O)N2CCOCC2)c1 | 16

SMILES | hERG current change (%, negative = inhibition) at 1uM [%]
COc1ccc(NC(=O)CSc2nccn2-c2ccccc2)cc1 | -4.16
Nc1c(C(=O)O)cnc2c(-c3ccc(Cl)cc3)cnn12 | 21.3
COc1ccc([C@H]2CC(=O)C=C(c3cccc(OCc4ccccc4)c3)C2)cc1 | 10.8
N#CC(C#N)=NNc1ccc(S(N)(=O)=O)cc1 | 7.93
CCCn1c2ccccc2c2cnn(CC(=O)NCCCN3C(C)CCCC3C)c(=O)c21 (centres unmarked) | 5.92
O=C(C(=O)N1CCN(c2ccccc2F)CC1)c1c[nH]c2ccccc12 | -0.856
CC(C(=O)Nc1ccc([N+](=O)[O-])cc1Cl)N1CCN(S(=O)(=O)c2cccs2)CC1 (centres unmarked) | 4.33
CCOC(=O)c1[nH]c2ccccc2c1NC(=S)Nc1cc(C)ccc1C | 3.97
CC(=O)C1=C(O)C(=O)N(CCc2c[nH]c3ccccc23)C1c1ccc(O)cc1 (centres unmarked) | 8.53
O=C(OCc1cccc([N+](=O)[O-])c1)c1cccnc1 | 5.71
COc1ccc(NC(=O)C(Cc2cc(C)cc(C)c2)C(C)C(=O)O)cc1 (centres unmarked) | 8.32
O=C(COc1coc(CN2CCN(c3ccccc3)CC2)cc1=O)NC1CCCCC1 | -13
CC(C)OC(=O)c1cc2c(ccn2C)n1CC(=O)N(Cc1ccccc1)c1ccccc1 | 13
CC1CCC/C(=N\NC(=O)COc2ccccc2Cl)C1 (centres unmarked) | 7.24
COc1ccc(N(CC(=O)NCc2cccs2)S(=O)(=O)c2c(C)n[nH]c2C)cc1 | 6.6
COc1ccc(Cn2nnnc2CN2CCC(O)(c3ccc(F)cc3)CC2)cc1 | 8.9
CC(=O)c1cccc(NC(=O)Nc2c(C)nn(C)c2C)c1 | 12.3
COc1ccc(NC(=O)C2CCN(S(=O)(=O)c3c(C)nn(C)c3C)CC2)cc1 | 15.2
O=C(NCCc1ccccc1)C(=O)c1c(-c2ccccc2)[nH]c2ccccc12 | 3.02
Cc1ccc(S(=O)(=O)/C(C#N)=C/c2ccccc2OCc2ccccc2)cc1 | 4.91
